# The other results are listed elsewhere or left out.
# Experiments:
# Experiment in all cases: glycan array binding signal (z-score within array); higher = stronger binding
# Conditions in all cases: glycan notation: IUPAC condensed, linker removed
# [1] = target: Gal(b1-4)GlcNAc(b1-2)[Gal(b1-4)GlcNAc(b1-4)]Man(a1-3)[Gal(b1-4)GlcNAc(b1-2)[Gal(b1-4)GlcNAc(b1-6)]Man(a1-6)]Man(b1-4)GlcNAc(b1-4)GlcNAc
# Outline: (§1)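 The binding signal is a Z-score computed within each array and averaged over linkers. Arrays of the same protein sequence at different concentrations or buffers were also averaged together. Data originate from 3228 arrays in the Consortium for Functional Glycomics database, kept only where the protein sequence was available.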
# [2] = target: Gal(b1-4)GlcNAc(b1-2)[Gal(b1-4)GlcNAc(b1-4)]Man(a1-3)[GlcNAc(b1-4)][Gal(b1-4)GlcNAc(b1-2)Man(a1-6)]Man(b1-4)GlcNAc(b1-4)GlcNAc
# Outline: as §1
# [3] = target: Gal(b1-4)GlcNAc(b1-2)[Gal(b1-4)GlcNAc(b1-4)]Man(a1-3)[GlcNAc(b1-4)][Gal(b1-4)GlcNAc(b1-2)[Gal(b1-4)GlcNAc(b1-6)]Man(a1-6)]Man(b1-4)GlcNAc(b1-4)GlcNAc
# Outline: as §1
# [4] = target: Gal(b1-4)GlcNAc(b1-2)[Gal(b1-4)GlcNAc(b1-6)]Man(a1-6)[Gal(b1-4)GlcNAc(b1-2)Man(a1-3)]Man(b1-4)GlcNAc(b1-4)GlcNAc
# Outline: as §1
# [5] = target: Gal(b1-4)GlcNAc(b1-2)[Gal(b1-4)GlcNAc(b1-6)]Man(a1-6)[Gal(b1-4)GlcNAc(b1-2)Man(a1-3)]Man(b1-4)GlcNAc(b1-4)[Fuc(a1-6)]GlcNAc
# Outline: as §1
# [6] = target: Gal(b1-4)GlcNAc(b1-2)[Gal(b1-4)GlcNAc(b1-6)]Man(a1-6)[GlcNAc(b1-4)][Gal(b1-4)GlcNAc(b1-2)Man(a1-3)]Man(b1-4)GlcNAc(b1-4)GlcNAc
# Outline: as §1
# [7] = target: Gal(b1-4)GlcNAc(b1-2)[Gal(b1-4)GlcNAc(b1-6)]Man(a1-6)[GlcNAc(b1-4)][Gal(b1-4)GlcNAc(b1-2)[Gal(b1-4)GlcNAc(b1-4)]Man(a1-3)]Man(b1-4)GlcNAc(b1-4)[Fuc(a1-6)]GlcNAc
# Outline: as §1
# [8] = target: Gal(b1-4)GlcNAc(b1-3)Gal(b1-3)GalNAc
# Outline: as §1
# [9] = target: Gal(b1-4)GlcNAc(b1-3)Gal(b1-3)GlcNAc
# Outline: as §1
# [10] = target: Gal(b1-4)GlcNAc(b1-3)Gal(b1-4)Glc
# Outline: as §1
# [11] = target: Gal(b1-4)GlcNAc(b1-3)Gal(b1-4)GlcNAc
# Outline: as §1
# [12] = target: Gal(b1-4)GlcNAc(b1-3)Gal(b1-4)GlcNAc(b1-2)Man(a1-3)[Gal(b1-4)GlcNAc(b1-3)Gal(b1-4)GlcNAc(b1-2)Man(a1-6)]Man(b1-4)GlcNAc(b1-4)GlcNAc
# Outline: as §1
# [13] = target: Gal(b1-4)GlcNAc(b1-3)Gal(b1-4)GlcNAc(b1-2)Man(a1-3)[Gal(b1-4)GlcNAc(b1-3)Gal(b1-4)GlcNAc(b1-2)Man(a1-6)]Man(b1-4)GlcNAc(b1-4)[Fuc(a1-6)]GlcNAc
# Outline: as §1
# [14] = target: Gal(b1-4)GlcNAc(b1-3)Gal(b1-4)GlcNAc(b1-2)[Gal(b1-4)GlcNAc(b1-3)Gal(b1-4)GlcNAc(b1-6)]Man(a1-6)[Gal(b1-4)GlcNAc(b1-3)Gal(b1-4)GlcNAc(b1-2)Man(a1-3)]Man(b1-4)GlcNAc(b1-4)GlcNAc
# Outline: as §1
# [15] = target: Gal(b1-4)GlcNAc(b1-3)Gal(b1-4)GlcNAc(b1-2)[Gal(b1-4)GlcNAc(b1-3)Gal(b1-4)GlcNAc(b1-6)]Man(a1-6)[Gal(b1-4)GlcNAc(b1-3)Gal(b1-4)GlcNAc(b1-2)Man(a1-3)]Man(b1-4)GlcNAc(b1-4)[Fuc(a1-6)]GlcNAc
# Outline: as §1
# [16] = target: Gal(b1-4)GlcNAc(b1-3)Gal(b1-4)GlcNAc(b1-3)Gal(b1-4)GlcNAc
# Outline: as §1
# [17] = target: Gal(b1-4)GlcNAc(b1-3)Gal(b1-4)GlcNAc(b1-3)Gal(b1-4)GlcNAc(b1-2)Man(a1-3)[Gal(b1-4)GlcNAc(b1-3)Gal(b1-4)GlcNAc(b1-3)Gal(b1-4)GlcNAc(b1-2)Man(a1-6)]Man(b1-4)GlcNAc(b1-4)GlcNAc
# Outline: as §1
# [18] = target: Gal(b1-4)GlcNAc(b1-3)Gal(b1-4)GlcNAc(b1-3)Gal(b1-4)GlcNAc(b1-2)Man(a1-3)[Gal(b1-4)GlcNAc(b1-3)Gal(b1-4)GlcNAc(b1-3)Gal(b1-4)GlcNAc(b1-2)Man(a1-6)]Man(b1-4)GlcNAc(b1-4)[Fuc(a1-6)]GlcNAc
# Outline: as §1
# [19] = target: Gal(b1-4)GlcNAc(b1-3)Gal(b1-4)GlcNAc(b1-3)Gal(b1-4)GlcNAc(b1-2)[Gal(b1-4)GlcNAc(b1-3)Gal(b1-4)GlcNAc(b1-3)Gal(b1-4)GlcNAc(b1-6)]Man(a1-6)[Gal(b1-4)GlcNAc(b1-3)Gal(b1-4)GlcNAc(b1-3)Gal(b1-4)GlcNAc(b1-2)Man(a1-3)]Man(b1-4)GlcNAc(b1-4)[Fuc(a1-6)]GlcNAc
# Outline: as §1
binder,measurement,setting,value
DBA (Dolichos biflorus) (protein) ANIQSFSFKNFNSPSFILQGDATVSSGKLQLTKVKENGFPLRFPSGRAFYSSPIQIYDKFTGAVASWATSFTVKISAPSKASFADGIAFALVPVGSEPRRNGGYLGVFDSDVYNNSAQTVAVEFDTLSNSGWDPSMKHIGIDVNSIKSIATVSWDLANGENAEILITYNAATSLLVVSLVHPSRRTSYILSERVDITNELPEYVGVGFSATTGLSEGYIETHDVLSWSFASRLPDDSTAEPLDLARYLVRNVL,glycan array binding signal (z-score),[1],-0.149
same,glycan array binding signal (z-score),[2],-0.103
same,glycan array binding signal (z-score),[3],-0.084
same,glycan array binding signal (z-score),[4],-0.105
same,glycan array binding signal (z-score),[5],-0.096
same,glycan array binding signal (z-score),[6],-0.166
same,glycan array binding signal (z-score),[7],-0.126
same,glycan array binding signal (z-score),[8],-0.086
same,glycan array binding signal (z-score),[9],-0.125
same,glycan array binding signal (z-score),[10],-0.131
same,glycan array binding signal (z-score),[11],-0.124
same,glycan array binding signal (z-score),[12],0.018
same,glycan array binding signal (z-score),[13],0.172
same,glycan array binding signal (z-score),[14],-0.006
same,glycan array binding signal (z-score),[15],0.145
same,glycan array binding signal (z-score),[16],-0.161
same,glycan array binding signal (z-score),[17],0.274
same,glycan array binding signal (z-score),[18],0.124
same,glycan array binding signal (z-score),[19],0.203
